The campaign covered roughly 310,000 compounds. About 2,200 (0.71%) showed an effect of 50% or more. Effects have a minus sign here. This is one part of the list.

Sequence of human ether-à-go-go-related gene (hERG) potassium channel (Q12809 whole entry, looked up): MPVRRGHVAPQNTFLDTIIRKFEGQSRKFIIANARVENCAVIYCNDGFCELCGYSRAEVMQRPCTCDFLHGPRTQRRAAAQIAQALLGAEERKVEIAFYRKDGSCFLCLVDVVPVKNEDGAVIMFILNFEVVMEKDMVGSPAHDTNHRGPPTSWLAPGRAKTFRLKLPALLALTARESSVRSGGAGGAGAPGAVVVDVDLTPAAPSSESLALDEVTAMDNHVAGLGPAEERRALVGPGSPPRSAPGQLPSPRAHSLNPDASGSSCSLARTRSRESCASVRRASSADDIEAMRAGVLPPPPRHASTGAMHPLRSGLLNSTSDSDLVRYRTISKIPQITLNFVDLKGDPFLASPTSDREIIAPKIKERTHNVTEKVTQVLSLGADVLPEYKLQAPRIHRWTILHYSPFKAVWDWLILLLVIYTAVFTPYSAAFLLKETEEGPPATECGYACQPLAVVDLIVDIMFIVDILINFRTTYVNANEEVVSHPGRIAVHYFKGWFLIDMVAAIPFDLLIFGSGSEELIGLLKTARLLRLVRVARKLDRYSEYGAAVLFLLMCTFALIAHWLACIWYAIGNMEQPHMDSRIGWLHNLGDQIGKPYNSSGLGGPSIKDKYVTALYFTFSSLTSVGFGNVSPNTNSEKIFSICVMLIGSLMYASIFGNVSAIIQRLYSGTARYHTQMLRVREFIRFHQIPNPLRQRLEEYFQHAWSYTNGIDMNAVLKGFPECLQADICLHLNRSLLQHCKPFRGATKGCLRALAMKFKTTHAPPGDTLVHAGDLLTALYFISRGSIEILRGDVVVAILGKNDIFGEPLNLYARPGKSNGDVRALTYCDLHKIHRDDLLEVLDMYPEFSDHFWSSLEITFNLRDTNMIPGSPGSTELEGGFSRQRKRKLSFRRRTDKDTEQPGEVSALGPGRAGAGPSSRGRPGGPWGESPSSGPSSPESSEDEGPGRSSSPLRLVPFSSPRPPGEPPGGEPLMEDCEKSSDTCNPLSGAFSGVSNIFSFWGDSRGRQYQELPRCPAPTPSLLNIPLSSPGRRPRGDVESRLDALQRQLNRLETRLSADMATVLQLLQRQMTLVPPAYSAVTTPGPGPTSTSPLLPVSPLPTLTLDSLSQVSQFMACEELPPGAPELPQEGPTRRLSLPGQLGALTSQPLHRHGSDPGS

The test concerns the target human ether-à-go-go-related gene (hERG) potassium channel (human, UniProt Q12809). Put plainly: primary screen, population patch clamp on CHO cells stably expressing hERG.
Consider `CC(=O)c1ccc(N2CCN(C(=O)c3cc4c(C)nc5ccccc5c4o3)CC2)cc1`, for which the “hERG current change (%, negative = inhibition) at 1uM” value was found to be 3.6%. For `CN(c1ccc(C(=O)Nc2cccnc2)cc1)S(=O)(=O)c1ccc(Cl)cc1`, the “hERG current change (%, negative = inhibition) at 1uM” value turned out to be 15.7%.

As for `Cc1n[nH]c(=S)n1/N=C/c1ccc(OCc2ccc(Cl)cc2)cc1`, the “hERG current change (%, negative = inhibition) at 1uM” value came out at 1.61%. As to `CCN(C(=O)c1coc(=O)c2ccccc12)c1cc(OC)ccc1OC`, the “hERG current change (%, negative = inhibition) at 1uM” value is reported as 7.68%. Turning to `COc1ccccc1N1CCN(/N=C(\C)c2ccccc2O)CC1`, the “hERG current change (%, negative = inhibition) at 1uM” value turned out to be 6.43%. For `COc1ccccc1Nc1nc(-c2ccc3c(c2)NC(=O)CO3)cs1`, the “hERG current change (%, negative = inhibition) at 1uM” value is given as 16%.

As to `CCOC(=O)c1cccc(NC(=O)N2CCOCC2)c1`, the “hERG current change (%, negative = inhibition) at 1uM” value was 8.16%. Consider `CCOC(=O)c1csc(NC(=O)c2cccs2)n1`, for which the “hERG current change (%, negative = inhibition) at 1uM” value was determined as 10.9%. Regarding `O=C(NCCCO)C(=O)NCC1OCCCN1S(=O)(=O)c1cccs1` (stereo not shown), the “hERG current change (%, negative = inhibition) at 1uM” value was 0.615%.

On to `O=C(O)C1C2C=CC(C2)C1C(=O)NCc1ccoc1` (stereo not shown), for which the “hERG current change (%, negative = inhibition) at 1uM” value turned out to be 14.3%. As to `COc1ccc(S(=O)(=O)N/N=C(/C)c2ccco2)cc1`, the “hERG current change (%, negative = inhibition) at 1uM” value worked out at 4.78%. Take `CC(C)[C@H](NC(=O)NC1CCCc2ccccc21)C(=O)O` (stereo partly shown): the “hERG current change (%, negative = inhibition) at 1uM” value is -6.68%.

Turning to `C/C(N)=C(/C#N)C(=O)COC(=O)C1CSC2(c3ccc(F)cc3)CCC(=O)N12` (stereo not shown), the “hERG current change (%, negative = inhibition) at 1uM” value was 16.6%. Regarding `CC(C)(C)NC(=O)C1Cc2ccccc2CN1C(=O)Nc1ccccc1Cl` (stereo not shown), the “hERG current change (%, negative = inhibition) at 1uM” value came out at 7%. On to `O=C1CCCN2N=C(SCC(=O)Nc3ccc(Cl)cc3)SC2=N1`, for which the “hERG current change (%, negative = inhibition) at 1uM” value is reported as 5.53%. Under `O=C(CN1CCc2ccccc21)NCc1ccccc1Cl` stands 10.1%.

For `O=C(NCCCn1ccnc1)C(=O)NCC(c1cccnc1)N1CCN(c2ccccc2)CC1` (stereo not shown), the “hERG current change (%, negative = inhibition) at 1uM” value is 7.3%. As to `CN(C)c1cc[n+](CC(=O)c2ccc(OC(F)F)cc2)cc1.[Br-]`, the “hERG current change (%, negative = inhibition) at 1uM” value amounted to 4.22%. As for `CCOC(=O)C1=C(CC)Nc2ccccc2N/C1=N\S(=O)(=O)c1ccc2ccccc2c1`, the “hERG current change (%, negative = inhibition) at 1uM” value worked out at 7.83%. Turning to `CC(=O)Oc1ccc(C(=O)Nc2ccc3c(c2)OCCO3)cc1`, the “hERG current change (%, negative = inhibition) at 1uM” value is on record as 19.4%. As for `O=C1C(=O)N(CCCN2CCOCC2)C(c2ccc([N+](=O)[O-])cc2)/C1=C(/O)c1ccc2c(c1)OCO2` (stereo not shown), the “hERG current change (%, negative = inhibition) at 1uM” value came to 14.2%.

Consider `COc1ccc(C=O)cc1COc1ccc([N+](=O)[O-])c(C)c1`, for which the “hERG current change (%, negative = inhibition) at 1uM” value is 21%.

Regarding `C/C(=N/n1cnnc1)c1cccnc1`, the “hERG current change (%, negative = inhibition) at 1uM” value worked out at 5.85%. For `O=C(Nc1cccnc1)Nc1ccc(F)c(Cl)c1`, the “hERG current change (%, negative = inhibition) at 1uM” value is listed as -11.8%. Consider `O=C(Nc1ccccc1C(=O)N1CCCCC1)c1ccccc1C(F)(F)F`, for which the “hERG current change (%, negative = inhibition) at 1uM” value came to 13.5%. For the molecule `Cc1onc(-c2ccccc2)c1C(=O)NC(=S)NNC(=O)c1ccc(O)cc1O`, the “hERG current change (%, negative = inhibition) at 1uM” value is 11.9%. The figure for `COc1ccc2c(c1)c1nc3ccccc3nc1n2CC(=O)OC(C)C` is 15.3%; for `Cc1ccc(Oc2ccc3c(c2)C(=O)N(c2ccc(S(=O)(=O)Nc4nccs4)cc2)C3=O)cc1` it is 8.57%; for `O=C(CSc1nc2ccccc2n1S(=O)(=O)c1ccccc1)N1CCCCC1` it is 7.93%.

Regarding `Cc1ccc(-c2cc3nn(-c4ccccc4)c(N)c3c(=O)o2)cc1`, the “hERG current change (%, negative = inhibition) at 1uM” value was determined as 5.78%. The figure for `C#CCOCCOCCOCCNc1nc(N2CCN(C(=O)Cn3cc(CCCC[NH3+])nn3)CC2)nc(N2CCN(C(=O)Cn3cc(CCC[NH+]=C(N)N)nn3)CC2)n1.[Cl-]` is 9.79%; for `CCOC(=O)c1ccccc1NC(=O)CN(c1ccccc1)S(=O)(=O)N(C)C` it is 11.7%; for `CCN(CC)S(=O)(=O)c1cccc(-c2n[nH]c(=S)n2/N=C/c2ccc(C(=O)OC)cc2)c1` it is 4.5%.

On to `Cc1ccc(/C=C2/SC(=S)N(CC(=O)Nc3ncc(Cc4ccc(C)cc4)s3)C2=O)cc1`, for which the “hERG current change (%, negative = inhibition) at 1uM” value worked out at 10%.

As for `CCCC(c1nnnn1CS(=O)(=O)c1ccc(C)cc1)N1CCN(C2CCCC2)CC1.Cl` (stereo not shown), the “hERG current change (%, negative = inhibition) at 1uM” value is given as -0.34%. For the molecule `CCOc1ccc(-n2c(=O)c3c4c(sc3n(CC(=O)NCCCOC)c2=O)CCCCC4)cc1`, the “hERG current change (%, negative = inhibition) at 1uM” value is recorded as 4.58%. Take `COc1ccc(Br)cc1C(=O)NC(=S)Nc1ccc2[nH]c(=O)[nH]c2c1`: the “hERG current change (%, negative = inhibition) at 1uM” value is given as 14.9%. In the case of `CS(=O)(=O)N1CCC(C(=O)NCCc2ccccc2)CC1`, the “hERG current change (%, negative = inhibition) at 1uM” value was -0.504%. Under `CCOC(=O)c1ccc(Oc2cc(C)nc(Cl)n2)cc1` stands 6.94%; under `CN(C)C(=O)C1Cc2ccccc2CN1S(=O)(=O)c1cccs1` (stereo not shown), 4.38%. Consider `c1ccc2sc(C3CCNCC3)nc2c1`, for which the “hERG current change (%, negative = inhibition) at 1uM” value came out at 8.12%.

As to `O=P(Cc1nnco1)(c1ccccc1)c1ccccc1`, the “hERG current change (%, negative = inhibition) at 1uM” value turned out to be 15.7%.

For the molecule `COc1cc(C2C3C(=O)N(c4ccccc4)C(=O)C3ON2c2ccccc2)ccc1O` (stereo not shown), the “hERG current change (%, negative = inhibition) at 1uM” value is given as 14.7%.

Turning to `CN1CCCCc2c1nc1ccccc1c2N.O=C(O)c1cncc(Br)c1`, the “hERG current change (%, negative = inhibition) at 1uM” value is given as -79.7%. As for `O=C(O)CCC(=O)N1CCN(c2nc(-c3ccccc3Cl)c3cc(Br)ccc3n2)CC1`, the “hERG current change (%, negative = inhibition) at 1uM” value is recorded as 3.67%. Regarding `CCS(=O)(=O)NCC(c1cccnc1)N1CCN(c2ccc(OC)cc2)CC1` (stereo not shown), the “hERG current change (%, negative = inhibition) at 1uM” value is given as -3.31%.

Consider `O=C(COC(=O)c1nc(Cl)ccc1Cl)NCc1cccs1`, for which the “hERG current change (%, negative = inhibition) at 1uM” value came out at 1.48%.

Regarding `COc1ccc(C(c2nnnn2C2CCCC2)N2CCN(C3CCCC3)CC2)cc1OC.Cl` (stereo not shown), the “hERG current change (%, negative = inhibition) at 1uM” value was determined as 7.47%. For the molecule `C=CCNC1=C(Cl)C(=O)c2ccccc2C1=O`, the “hERG current change (%, negative = inhibition) at 1uM” value is 8.37%. On to `Cc1ccc(C(=O)NC(=S)NCC2CCCO2)cc1` (stereo not shown), for which the “hERG current change (%, negative = inhibition) at 1uM” value was found to be 6.53%.

Consider `CC(=O)c1cccc(NC(=O)C2CC(=O)N(Cc3ccccc3)C2)c1` (stereo not shown), for which the “hERG current change (%, negative = inhibition) at 1uM” value is reported as 12.2%. With `O=C(CSc1nc2ccccc2o1)N/N=C/c1ccc(O)c(O)c1`, the “hERG current change (%, negative = inhibition) at 1uM” value is listed as 3.6%. Under `Cc1ccc(NC(=O)CSCc2ccco2)cc1` stands 14.6%. For the molecule `N#Cc1c(SCc2ccccc2)sc(C(=O)c2ccccc2)c1N`, the “hERG current change (%, negative = inhibition) at 1uM” value is 10.8%. On to `COC(=O)c1cc(OC)c(OC)c(OC)c1NC(=O)c1ccc(S(=O)(=O)N(C)C)cc1`, for which the “hERG current change (%, negative = inhibition) at 1uM” value worked out at 5.04%.

For the origin of these results see publication PMC4336329 (PLoS ONE, 2015).
